Data as given in article PMC4336329 (PLoS ONE, 2015).
The campaign covered roughly 310,000 compounds. About 14,000 (4.5%) showed an effect of 50% or more. Effects have a minus sign here. The list shows a part of the results.

target: human ether-à-go-go-related gene (hERG) potassium channel (human, UniProt Q12809); assay: primary screen, population patch clamp on CHO cells stably expressing hERG
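Note: peak tail current of the secondary pulse compared with the same well before compound.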

Sequence of human ether-à-go-go-related gene (hERG) potassium channel (Q12809 whole entry, looked up): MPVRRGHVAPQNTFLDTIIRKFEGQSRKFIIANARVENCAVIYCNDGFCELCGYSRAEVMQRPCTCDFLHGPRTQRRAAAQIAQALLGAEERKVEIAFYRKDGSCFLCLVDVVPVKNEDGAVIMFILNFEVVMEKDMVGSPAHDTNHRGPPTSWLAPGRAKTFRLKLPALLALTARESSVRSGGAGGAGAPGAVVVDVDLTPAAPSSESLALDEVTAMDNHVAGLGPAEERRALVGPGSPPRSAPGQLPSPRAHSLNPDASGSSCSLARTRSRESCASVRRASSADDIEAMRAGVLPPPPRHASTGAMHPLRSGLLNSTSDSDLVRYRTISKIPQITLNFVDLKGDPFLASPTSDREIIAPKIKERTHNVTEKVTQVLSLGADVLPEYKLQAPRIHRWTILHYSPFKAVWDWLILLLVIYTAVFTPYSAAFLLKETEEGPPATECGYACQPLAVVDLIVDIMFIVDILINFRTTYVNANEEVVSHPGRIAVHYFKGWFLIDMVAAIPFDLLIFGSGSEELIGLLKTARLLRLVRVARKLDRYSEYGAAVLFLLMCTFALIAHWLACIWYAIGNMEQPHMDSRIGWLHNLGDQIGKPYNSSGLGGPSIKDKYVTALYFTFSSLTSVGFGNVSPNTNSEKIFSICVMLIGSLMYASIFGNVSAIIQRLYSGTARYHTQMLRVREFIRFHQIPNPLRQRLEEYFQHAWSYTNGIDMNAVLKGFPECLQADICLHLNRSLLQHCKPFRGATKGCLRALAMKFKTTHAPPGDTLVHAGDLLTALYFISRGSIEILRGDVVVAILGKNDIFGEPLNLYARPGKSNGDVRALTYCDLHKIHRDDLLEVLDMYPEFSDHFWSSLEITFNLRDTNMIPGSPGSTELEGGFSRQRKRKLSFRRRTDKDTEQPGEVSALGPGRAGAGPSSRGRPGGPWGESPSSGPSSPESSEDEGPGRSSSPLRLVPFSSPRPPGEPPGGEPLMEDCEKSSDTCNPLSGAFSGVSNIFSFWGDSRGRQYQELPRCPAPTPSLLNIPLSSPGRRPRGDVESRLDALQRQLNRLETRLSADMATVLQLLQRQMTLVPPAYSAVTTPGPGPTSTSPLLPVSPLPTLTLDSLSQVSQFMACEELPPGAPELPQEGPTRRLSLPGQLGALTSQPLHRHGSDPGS

SMILES	hERG current change (%, negative = inhibition) at 10uM [%]
CC(=O)NC(CCS(C)(=O)=O)C(=O)Nc1ccc(C)c(F)c1 (centres unmarked)	-12.7
CCCCOc1ccc(CSc2n[nH]c(C)n2)cc1	-1.41
COc1ccc(Br)cc1C(=O)Nc1cccc(C)c1C	-7.74
COc1cc(OC)cc(C(=O)NCC(=O)OCC(=O)c2ccc3c(c2)-c2ccccc2C3)c1	3.82
Cc1cc(C(=O)CN2C(=O)NC3(CCCCC3)C2=O)c(C)n1Cc1ccco1	-6.05
C#CCOC(=O)C[N+](C)(C)CC=C.[Cl-]	15.5
N#CC1=C(N)Oc2c(c(=O)oc3ccccc23)C1c1ccncc1 (centres unmarked)	-13.5
CC(C)(C)c1ccc(C(=O)NCCC(=O)N2CCCC2)cc1	16.4
Cc1c(C(=O)Nc2ccc(N3CCOCC3)cc2)cccc1[N+](=O)[O-]	8.67
CC(CNC(=O)CCn1ccc2cc(S(=O)(=O)N3CCCC3)ccc21)c1ccccc1 (centres unmarked)	-27.3
Cc1ccccc1NC1=C(Cl)C(=O)OC1OC(=O)c1ccccc1C (centres unmarked)	-6.95
O=C(c1ccc2[nH]c(=O)c(=O)[nH]c2c1)N1CCN(Cc2ccccc2)CC1	17.1
CC(C)(C)C(=O)COC(=O)c1ccc(N)c([N+](=O)[O-])c1	3.04
CC(=O)c1c(C)[nH]c(-c2ccccc2)nc1=S	10.5
COC(=O)c1sc(N)c(C(=O)OC)c1CSc1nc2sc3c(c2c(=O)n1C)CCC3	-3.07
CCOc1ccc(S(=O)(=O)Nc2ccc3c(c2)n(C)c(=O)n3C)cc1	11.5
CNC(=S)Nn1cnc2ccccc21	-4
CCCCOCCCNC(=O)c1ccc2c(c1)OCO2	-9.67
CCCCn1c(N)c(N(CCOC)C(=O)COC(=O)C(C)Oc2ccc(Cl)cc2)c(=O)[nH]c1=O (centres unmarked)	11.2
Cc1cc(C)cc(NC(=O)N2CCN(Cc3ccc4c(c3)OCO4)CC2)c1	-59
OCC[C@H]1C[C@H](O)[C@@H](O)[C@]2(OCc3ccccc32)O1	11.9
COc1ccc2c(c1)c(C(C)=O)c(C)n2-c1ccccc1	-8.62
C=CCn1c(SCC(=O)Nc2cc(C)on2)nc2sc(C)c(C)c2c1=O	-0.759

SMILES	hERG current change (%, negative = inhibition) at 10uM [%]
CCOC(=O)C1=C(COC(=O)C2(C)CC2(Cl)Cl)NC(=O)NC1c1ccccc1 (centres unmarked)	-23.4
O=S(=O)(NCc1nc(-c2ccccc2)no1)c1ccc(F)cc1	0.0586
O=C(O)c1ccccc1O	23.8
COC(=O)c1sccc1NC(=S)Nc1cccc(F)c1	10.7
CS(=O)(=O)N(CC(=O)NC1CCCC1)C1CCCCC1	-2.14
CCCC(=O)Nc1cccc(S(=O)(=O)N(C)c2ccccc2)c1	-12.3
Cc1ccc(C)c(C(=O)CN2C(=O)CCC2=O)c1	5.72
O=[N+]([O-])c1ccc(N2CCOCC2)cc1NCCCO	13
CCN1CCN(C(=O)c2cc3c(=O)n(C)c4ccccc4c3n2C)CC1	-9.33
Cc1cc(C)n(CC(C)(O)c2ccccc2)n1 (centres unmarked)	11.5
O=C(Cn1cc(C(=O)c2ccccc2F)c2ccccc21)NCc1ccco1	9.98
CCNc1nc(-c2cc3ccccc3o2)cs1	-2.5
COc1c2c(nc3occc13)C(CCC(C)(C)O)(OC)C(O)CC2 (centres unmarked)	3.68
Cc1nc2ccccc2c(=O)n1-c1ccc(Cl)cc1Cl	-0.324
O=C(Nc1ccc(C(=O)OC2CCCCC2)cc1)c1ccncc1	14.2
O=C(Oc1cccc(Nc2ncnc3ccccc23)c1)c1ccccc1Cl	4.19
CC1CN(C(=O)CCC(=O)NCc2ccc(F)cc2)c2ccccc2S1 (centres unmarked)	-30.3
COC(=O)C1=NN(C(=O)c2ccc(Cl)cc2)C(O)(c2ccccc2)C1 (centres unmarked)	-11.6
Cc1nc2scc(-c3cccs3)c2c(=O)n1N	-7.84
COc1ccc(N2CCN(C(=O)c3ccccc3NC(=O)C3=C(C)OCCS3)CC2)cc1	3.16
CCCCNC(=S)NNC(=O)C1=NN(c2cc(C)ccc2C)C(=O)CC1	17.2
CCCc1cc(C(=O)Nc2cnn(Cc3ccc(F)cc3)c2)no1	5.95
CC1CN(S(=O)(=O)c2ccc(C(=O)N(CCCN(C)C)c3nc4cc5c(cc4s3)OCCO5)cc2)CC(C)O1.Cl (centres unmarked)	-28.8

SMILES	hERG current change (%, negative = inhibition) at 10uM [%]
C=CCOc1cccc(C2C(C(=O)c3ccc(C)o3)=C(O)C(=O)N2Cc2ccncc2)c1 (centres unmarked)	12.5
O=C(CSc1ccccc1)N(c1ccc(Br)cc1)c1nccs1	10.8
COc1cc(CCC(=O)N2CC(C)OC(C)C2)cc(OC)c1OC (centres unmarked)	14.1
Cc1ccc2nc(SCC(=O)c3ccccc3)nc(=O)n2c1	-10.1
CCOC(=O)c1sc2nc(SCC(=O)NCc3ccco3)n(Cc3ccccc3)c(=O)c2c1C	7.28
CCn1c(N2CCN(CC(=O)c3c(C)n(C)c4ccc(OC)cc34)CC2)nc2c1c(=O)[nH]c(=O)n2C	3.19
COc1ccc(C2/C(=C(/O)c3ccc(C)cc3)C(=O)C(=O)N2C)cc1 (centres unmarked)	-2.36
COC(=O)c1ccc(CSc2ccc3nnc(-c4ccc(OC)c(OC)c4)n3n2)o1	-15.1
COc1ccccc1NC(=O)CCc1nc2ccccc2s1	-3.1
CC(C)OC(=O)c1nnc(-c2ccccc2)nc1OC(C)C	-14.6
COc1ccc(S(=O)(=O)Cc2ccc(C(=O)N3CCN(c4ccccn4)CC3)o2)cc1	-27.9
NC(=O)c1ccccc1NC(=O)CSc1cn[nH]n1	13.2
COC(=O)c1onc(-c2ccccc2)c1C(=O)OC	10.3
CN1C(=O)C(=Cc2ccc(N3CCCCCC3)cc2)C(=O)N(C)C1=O	13.1
CCN(CC)CCCC(C)NC(=O)c1c(NC(=O)c2ccccc2)sc2c1CCCC2.O=C(O)C(=O)O (centres unmarked)	-76.9
COc1ccc(NC(=O)c2cc3ccccc3o2)cc1OC	-3.22
N#Cc1nc(-c2ccco2)oc1NCc1ccc(F)cc1	-4.84
CN1CCCN(Cc2ccccc2Br)CC1	9.59
O=C(O)Cn1ccc2cc(S(=O)(=O)N3CCCCCC3)ccc21	21
COc1ccc(S(=O)(=O)CCC(=O)Nc2c(C)cccc2C)cc1	23
COc1ccc([N+](=O)[O-])cc1NC(=O)CS(=O)(=O)c1ccc(C)cc1	4.76
Cc1cc(C(N)=O)c2ccccc2n1	19.4
O=C(Cc1c(Cl)cccc1Cl)NCCc1ccc(Cl)cc1	-39.1

SMILES	hERG current change (%, negative = inhibition) at 10uM [%]
C/C(=N\Nc1ccc2nncn2n1)c1cccs1	16
COc1ccc(NC(=O)c2oc3ccccc3c2NC(=O)c2ccc3c(c2)OCO3)cc1	25
COc1ccc(/C=C/C(=O)NC(=S)NNC(=O)c2cc(OC)c(OC)c(OC)c2)cc1	16.7
COCCNC(=O)C(c1cccs1)N(C(=O)Cn1nnc2ccccc21)c1ccc2c(c1)OCO2 (centres unmarked)	-8.95
CCCCOc1ccc(N2CC(C(=O)NCCc3ccc(OC)c(OC)c3)CC2=O)cc1 (centres unmarked)	3.49
COc1ccc(C(=O)C2CCN(S(=O)(=O)c3ccc4c(c3)OCCO4)CC2)cc1	0.692
CCn1c(SCC(=O)N2CCCC(C)C2)nnc1-c1ccc(S(=O)(=O)N2CCN(C)CC2)cc1 (centres unmarked)	-0.801
CC(=O)c1c(N2CCOCC2)nc(=S)n(-c2ccc([N+](=O)[O-])cc2)c1C	-46.2
C/C(=N\NC(=O)c1ccc(Br)cc1)C1C(=O)c2ccccc2C1=O	17.9
Cc1ccc(S(=O)(=O)N(C)CC(=O)OCC(=O)NC(=O)NC(C)C)cc1	-12.1
Cc1ccc(C(=O)Nc2nnc(S(=O)(=O)N3CCOCC3)s2)cc1	12.2
Cc1cc(=O)[nH]c(SCC(=O)Nc2nnc(SCc3ccccc3)s2)n1	11.4
O=C(O)/C=C\C(=O)Nc1ccccc1C(=O)N1CCN(c2ccc(Cl)cc2)CC1	-0.544
CC(C)=CC(=O)N1CCCc2ccccc21	-2.07
O=C(O)CCCC(=O)OCCCCc1cccs1	-2.23
N=C1/C(=C/c2cccn2CCOc2ccccc2)C(=O)N=C2SC=C(c3ccccc3)N12	0.858
CN(CC(=O)NCc1ccccc1)Cc1cccc(F)c1.O=C(O)C(=O)O	9.59
COc1ccc2c(c1)C(=O)N1[C@H]3c4cc(Br)ccc4OC[C@@H]3[C@H](c3ccccc3)[C@]1(C)C(=O)N2	18.1
COc1ccc(C)cc1NC(=O)c1ccc(S(=O)(=O)N2CCOCC2)cc1	2.48
Cc1cccc(N2C(=NC(=O)c3ccccc3)SC3CS(=O)(=O)CC32)c1 (centres unmarked)	7
